From PubChem BioAssay (NCATS)
The shares of active, inactive and inconclusive entries below differ from those in the screen. Potencies beside an inconclusive call are fits to weak or partial responses and may not hold up. The source made the active and inactive calls. Calls follow the shape of the dose curve; as a rule, active = well fitted inhibition curve with a large enough effect; inconclusive = small, poorly fitted or top-dose-only effect; inactive = no such curve, though single readings can be large or run the other way. Residues, ends and D or L forms follow the SMILES beside them.

Experiment: qHTS to identify inhibitors of the type 1 interferon - major histocompatibility complex class I in skeletal muscle: primary screen against the NCATS Mechanism Interrogation Plate v5.0 (MIPE) Libary (AID 1347411); also: nearly all actives have a fitted effect of over 65% in size;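 as to activity change, negative = inhibition: plate controls were vehicle for no effect and reference inhibitor for full effect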
Conditions: iHSKM cells + IFN-b, HiBiT-tagged MHC-I luminescence, 24 h; activity change, negative = inhibition: at 45.8 µM (top of the series)
Procedure, shortened: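 Luminescence from CRISPR HiBit-tagged endogenous HLA-B in human myoblasts reported MHC class I level after 24 h of IFN-beta (4 ng/ml) plus compound. Compounds ran as 11-point 1:3 series, top 46 uM final.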
Potency is read from the fitted curve at half-maximal effect; tags tell the direction and shape of the fitted curve.

Question: For `Cc1cc(=O)oc2cc(O)ccc12`, which “activity change, negative = inhibition” value is on record?
Answer: inactive: -13.5%

Question: For `Cc1cc(C(=O)NOCCO)c(Nc2ccc(I)cc2F)n(C)c1=O`, which “activity change, negative = inhibition” value is on record?
Answer: inactive: 10.1%

Question: For `CN(C[C@@H]1COCCO1)S(=O)(=O)Nc1ccc2ccc3ncc(-c4cnn(C)c4)cc3c(=O)c2c1`, which Potency is on record?
Answer: inconclusive: 8.29 µM [inhibitor, partial curve]

Question: For `CN1CCN(Cc2ccc(NC(=O)Nc3ccc(Oc4cc(NC(=O)C5CC5)ncn4)cc3)cc2C(F)(F)F)CC1`, which Potency is on record?
Answer: active: 0.415 µM

Question: With `Cc1noc(-c2ccc(CSCCC(=O)O)cc2)c1NC(=O)OC(C)c1ccccc1Cl` (configuration not stated) as the compound, how does the Potency read?
Answer: inconclusive: 16.5 µM [inhibitor, partial curve]

Question: Which “activity change, negative = inhibition” value does the source give for `CNC(=O)c1ccc(-c2cnc3ncc(Cc4ccc5ncccc5c4)n3n2)cc1F` here?
Answer: inactive: 2.59%

Question: Which Potency does the source give for `CC(C)(C)C(=O)Oc1ccc2c(c1)nc(NC(=O)c1cccc([N+](=O)[O-])c1)n2CCCO` here?
Answer: inconclusive: 5.23 µM [inhibitor, full curve, poor fit]

Question: With `NS(=O)(=O)c1cc2c(cc1Cl)NCNS2(=O)=O` as the compound, how does the “activity change, negative = inhibition” value read?
Answer: inactive: -12.8%

Question: Which Potency does the source give for `COc1ccc(Cc2ccc(NC(N)=O)cc2)cc1-c1cccc(Cl)c1` here?
Answer: inconclusive: 29.4 µM [inhibitor, single point]

Question: For `O=C(NCc1ccncc1)C12C[C@H]3C[C@@H](C1)CC(c1ccc(Cl)cc1)(C3)C2`, which “activity change, negative = inhibition” value is on record?
Answer: inactive: -9.19%

Question: Which “activity change, negative = inhibition” value does the source give for `O=C(NCCO[N+](=O)[O-])c1cccnc1` here?
Answer: inactive: 13.7%

Question: Which “activity change, negative = inhibition” value does the source give for `CC(C)OC(=O)C(C(=O)OC(C)C)=C1SC=CS1` here?
Answer: inactive: -4.65%

Question: Which “activity change, negative = inhibition” value does the source give for `COc1nccc(-c2c(-c3ccc(F)cc3)ncn2C2CCC(O)CC2)n1` (configuration not stated) here?
Answer: inactive: -14.3%

Question: Which “activity change, negative = inhibition” value does the source give for `CCCNC(=O)Nc1ccc(Oc2ncnc3cc(OC)c(OC)cc23)cc1Cl` here?
Answer: inactive: -6.63%

Question: Which “activity change, negative = inhibition” value does the source give for `O=C(C1CC1)N1CC[C@@H](Cn2c(-c3ccc(-c4ccc5occc5c4)cc3)nc3cnccc32)C1` here?
Answer: inactive: -24.8%

Question: Which Potency does the source give for `CN1CCN(c2cccc(Nc3nc4c(-c5ccc(S(C)(=O)=O)cc5)cccn4n3)c2)CC1` here?
Answer: active: 5.23 µM

Question: Which Potency does the source give for `CN(C)C1CCN(C(=O)c2ccc(NC(=O)Nc3nc(N4CCOCC4)nc(N4CCOCC4)n3)cc2)CC1` here?
Answer: inconclusive: 0.234 µM [inhibitor, full curve]

Question: Which “activity change, negative = inhibition” value does the source give for `COC(=O)[C@H](Cc1ccccc1)NC(=O)[C@@H](N)CC(=O)O` (H-Asp-Phe-OMe) here?
Answer: inactive: -1.54%

Question: For `COc1ccc2cccc(CCNC(C)=O)c2c1`, which “activity change, negative = inhibition” value is on record?
Answer: inactive: -21.4%

Question: With `COc1nc(-c2ccc3c(c2)OCO3)n(-c2ccc(NC(=O)CSc3ccccc3)cc2)n1` as the compound, how does the “activity change, negative = inhibition” value read?
Answer: inactive: -28.1%

Question: With `N#Cc1ccc(C(c2ccc(C#N)cc2)n2cncn2)cc1` as the compound, how does the “activity change, negative = inhibition” value read?
Answer: inactive: -11.9%

Question: With `N#CNC(=NCCCCCCOc1ccc(Cl)cc1)Nc1ccncc1` as the compound, how does the Potency read?
Answer: inconclusive: 5.23 µM [inhibitor, partial curve]

Question: With `Cc1nc2c([nH]1)CCN(C(=O)c1ccc(NC(=O)c3ccccc3-c3ccccc3)cc1)c1ccccc1-2` as the compound, how does the “activity change, negative = inhibition” value read?
Answer: inactive: 15.7%

Question: With `O=C(Nc1cccnc1)N1CCC(Cc2cccc(Oc3ccc(C(F)(F)F)cn3)c2)CC1` as the compound, how does the Potency read?
Answer: inconclusive: 14.7 µM [inhibitor, partial curve, poor fit]

Question: With `NC(=O)c1cccc(-c2cc(Nc3ccc(OC(F)(F)F)cc3)ncn2)c1` as the compound, how does the Potency read?
Answer: inconclusive: 18.6 µM [inhibitor, partial curve]

Question: With `CC(C)(C)NC(=O)Nc1cccc(Nc2ncc(F)c(NC(C)(C)CO)n2)c1` as the compound, how does the Potency read?
Answer: inconclusive: 29.4 µM [inhibitor, partial curve, poor fit]

Question: With `CN1CCN(CCOc2cc(OC3CCOCC3)c3c(Nc4c(Cl)ccc5c4OCO5)ncnc3c2)CC1` as the compound, how does the Potency read?
Answer: active: 29.4 µM

Question: Which Potency does the source give for `COc1cc(C(=O)NC2CCN(C)CC2)ccc1Nc1ncc2c(n1)N(C1CCCC1)CCC(=O)N2C(C)C` here?
Answer: inconclusive: 41.5 µM [inhibitor, single point]

Question: Which Potency does the source give for `CO[C@H]1C[C@@H]2CC[C@@H](C)[C@@](O)(O2)C(=O)C(=O)N2CCCC[C@@H]2C(=O)O[C@H]([C@@H](C)C[C@@H]2CC[C@H](O)[C@H](OC)C2)CC(=O)[C@H](C)C=C(C)[C@@H](O)[C@@H](OC)C(=O)[C@H](C)C[C@H](C)C=CC=CC=C1C` here?
Answer: inconclusive: 18.6 µM [inhibitor, partial curve, poor fit]

Question: Which “activity change, negative = inhibition” value does the source give for `NCC1CCC(C(=O)O)CC1` (configuration not stated) here?
Answer: inactive: -16.3% [at 15.5 µM]

Question: For `COc1ccc2c(Oc3ccc(NC(=O)c4c(C)n(CC(C)(C)O)n(-c5ccccc5)c4=O)nc3)ccnc2c1`, which Potency is on record?
Answer: inconclusive: 8.29 µM [inhibitor, partial curve]

Question: For `O=C(CCc1ccc(O)cc1)c1c(O)cc(O)cc1O`, which activity change, negative = inhibition is on record?
Answer: inconclusive: -38.4% [inhibitor]

Question: For `Nc1cc(C(Cl)=C(Cl)Cl)c(S(N)(=O)=O)cc1S(N)(=O)=O`, which “activity change, negative = inhibition” value is on record?
Answer: inactive: 12.2%

Question: Which Potency does the source give for `COc1cc(F)c(F)c(Nc2ccc(I)cc2F)c1NS(=O)(=O)C1(C[C@H](O)CO)CC1` here?
Answer: inconclusive: 16.5 µM [inhibitor, partial curve]

Question: With `COC(=O)C[C@](O)(CCCC(C)(C)O)C(=O)O[C@@H]1C(OC)=C[C@]23CCCN2CCc2cc4c(cc2[C@H]13)OCO4` as the compound, how does the Potency read?
Answer: active: 0.093 µM

Question: Which “activity change, negative = inhibition” value does the source give for `CCCC1OC2C[C@@H]3[C@H]4CCC5=CC(=O)C=C[C@]5(C)[C@H]4C(O)C[C@]3(C)[C@]2(C(=O)CO)O1` (some centres not stated) here?
Answer: inactive: -6.78%

Question: With `CC1CCN(c2cc(N3CCN(C)CC3)ccc2NC(=O)c2cc(C#N)c[nH]2)CC1` as the compound, how does the Potency read?
Answer: inconclusive: 29.4 µM [inhibitor, single point]
